One molecule from patent publication US20060117402A1 (KOREA KUMHO PETROCHEMICAL, published 2006) can be followed below.

The assay deals with T1, full-length ABF2, in vitro translated and 35S-Met-labelled (Arabidopsis, UniProt Q9M7Q4 1-416, 35S-Met-labelled).
T1 construct: range 1-416; Cloned into pCITE (Novagen) and translated with the TNT kit; also called ABF2/AREB1
T1 sequence (looked up): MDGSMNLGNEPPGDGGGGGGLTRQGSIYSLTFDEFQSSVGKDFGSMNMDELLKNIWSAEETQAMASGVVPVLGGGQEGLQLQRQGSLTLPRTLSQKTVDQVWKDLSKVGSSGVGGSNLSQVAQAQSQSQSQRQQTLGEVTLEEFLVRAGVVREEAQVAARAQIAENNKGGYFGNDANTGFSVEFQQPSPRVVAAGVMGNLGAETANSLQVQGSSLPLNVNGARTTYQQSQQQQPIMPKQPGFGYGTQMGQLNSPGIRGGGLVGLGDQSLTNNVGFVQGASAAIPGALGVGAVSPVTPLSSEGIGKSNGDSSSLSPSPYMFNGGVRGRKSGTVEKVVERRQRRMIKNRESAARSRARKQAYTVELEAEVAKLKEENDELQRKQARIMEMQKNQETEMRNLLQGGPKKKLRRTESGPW
Briefly: GST pulldown of 35S-labelled ABF2, autoradiography. As for the experimental part: For binding assay, GST-ARIA fusion proteins (0.5 μg) were incubated with the Glutathione-Sepharose 4B resins for 1 hr at 4° C. in a binding buffer (50 mM Tris, pH 8.0, 100 mM NaCl, 10% glycerol, 0.5% Triton X-100, 1 mM PMSF). In vitro-translated, ³⁵S-labeled ABF2 was then added and incubation was continued for 2 hr with constant rotation. The resins were washed five times with the binding buffer and resuspended in SDS-polyacrylamide gel electrophoresis sample buffer. The proteins were separated on 15% SDS-polyacrylamide gel and visualized by autoradiography.

B1: GST alone (other)
chain: not shown
notes: Negative control in the GST pulldown; also called glutathione-S-transferase
For B1, the binding result is recorded as “no binding”.
